This is an account of results in PMC11911400, “Mechanism of ASF1 engagement by CDAN1” (Nature Communications, 2025).

Sequences of proteins named here, by UniProt entry; tags and fusion partners are left off. A change or cut given only in a name is not applied to a line headed by its entry. A line that says so, or that is headed by a name, gives the form on record, which may keep a tag or linker.
UniProt Q9Y294: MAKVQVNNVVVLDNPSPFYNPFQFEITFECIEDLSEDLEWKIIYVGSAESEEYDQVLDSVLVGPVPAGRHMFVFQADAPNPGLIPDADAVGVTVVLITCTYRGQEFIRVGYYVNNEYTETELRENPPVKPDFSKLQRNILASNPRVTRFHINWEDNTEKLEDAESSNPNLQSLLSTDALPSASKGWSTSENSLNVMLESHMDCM
FLAG-ASF1A N > B (ASF1A with the NTD of ASF1B) (Q9Y294, form named): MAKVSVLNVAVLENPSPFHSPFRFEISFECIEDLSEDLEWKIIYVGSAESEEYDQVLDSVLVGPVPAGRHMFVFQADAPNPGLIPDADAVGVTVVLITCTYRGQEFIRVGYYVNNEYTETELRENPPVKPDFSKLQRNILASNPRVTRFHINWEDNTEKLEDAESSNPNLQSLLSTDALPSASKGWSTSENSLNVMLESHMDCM
UniProt Q9NVP2: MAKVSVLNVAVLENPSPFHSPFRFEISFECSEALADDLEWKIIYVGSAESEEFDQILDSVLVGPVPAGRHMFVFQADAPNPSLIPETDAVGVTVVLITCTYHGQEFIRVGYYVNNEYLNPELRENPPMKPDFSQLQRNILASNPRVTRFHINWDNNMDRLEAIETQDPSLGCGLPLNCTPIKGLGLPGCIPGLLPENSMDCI
FLAG-ASF1B N > A (ASF1B with the NTD of ASF1A) (Q9NVP2, form named): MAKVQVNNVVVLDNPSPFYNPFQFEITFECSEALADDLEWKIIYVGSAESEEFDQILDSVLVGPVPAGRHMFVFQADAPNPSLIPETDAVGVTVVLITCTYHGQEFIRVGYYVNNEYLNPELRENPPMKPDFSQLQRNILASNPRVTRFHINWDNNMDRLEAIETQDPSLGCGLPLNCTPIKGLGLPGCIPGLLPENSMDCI

Assay [1] concerns the target T1, Strep-CDAN1 HMHA1* BDA2* (human) (UniProt Q8IWY9).
T1 sequence: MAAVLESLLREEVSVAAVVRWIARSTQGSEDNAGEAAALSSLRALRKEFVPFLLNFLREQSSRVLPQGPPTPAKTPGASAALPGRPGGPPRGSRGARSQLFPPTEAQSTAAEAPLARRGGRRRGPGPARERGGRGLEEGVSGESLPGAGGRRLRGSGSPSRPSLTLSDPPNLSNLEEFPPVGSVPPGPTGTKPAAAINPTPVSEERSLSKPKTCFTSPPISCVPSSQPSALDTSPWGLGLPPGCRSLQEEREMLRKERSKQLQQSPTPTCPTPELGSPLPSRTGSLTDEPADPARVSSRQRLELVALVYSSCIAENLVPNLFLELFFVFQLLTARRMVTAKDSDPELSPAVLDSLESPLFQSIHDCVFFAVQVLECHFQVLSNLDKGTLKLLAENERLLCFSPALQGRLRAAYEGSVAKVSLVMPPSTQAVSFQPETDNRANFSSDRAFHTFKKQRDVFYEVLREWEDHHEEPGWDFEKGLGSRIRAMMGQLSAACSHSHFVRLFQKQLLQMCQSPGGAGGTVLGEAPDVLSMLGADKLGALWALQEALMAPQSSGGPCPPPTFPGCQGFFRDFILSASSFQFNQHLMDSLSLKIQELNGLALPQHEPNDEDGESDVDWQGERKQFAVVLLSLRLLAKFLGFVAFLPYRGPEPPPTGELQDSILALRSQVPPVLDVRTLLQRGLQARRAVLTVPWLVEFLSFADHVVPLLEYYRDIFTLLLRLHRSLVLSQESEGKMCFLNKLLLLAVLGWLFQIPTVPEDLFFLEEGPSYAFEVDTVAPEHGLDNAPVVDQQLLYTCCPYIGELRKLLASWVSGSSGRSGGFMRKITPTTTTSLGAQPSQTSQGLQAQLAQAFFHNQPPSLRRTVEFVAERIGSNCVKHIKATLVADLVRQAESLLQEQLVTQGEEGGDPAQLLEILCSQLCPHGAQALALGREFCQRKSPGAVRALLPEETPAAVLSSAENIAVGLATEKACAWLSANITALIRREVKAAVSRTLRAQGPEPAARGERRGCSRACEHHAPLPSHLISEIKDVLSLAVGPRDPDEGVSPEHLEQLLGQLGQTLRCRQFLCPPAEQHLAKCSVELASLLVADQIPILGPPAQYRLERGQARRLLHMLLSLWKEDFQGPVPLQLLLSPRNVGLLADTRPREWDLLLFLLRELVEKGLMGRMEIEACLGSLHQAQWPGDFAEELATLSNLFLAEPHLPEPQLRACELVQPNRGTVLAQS
Description: pull-down; Strep-Tactin pulldown of ST-CDAN1 variants co-transfected with FLAG-tagged ASF1A or ASF1B variants in Flp-In 293 T-REx cells; immunoblotting; IP buffer with 1% Triton X-100, 1 hr at 4 °C. A general note: In western blotting, separated proteins are transferred to a membrane and probed.

The target of assay [2] is T2, endogenous CDAN1 with a C-terminal HaloTag-FLAG (HF) tag (human (endogenous in Flp-In 293 T-REx)) (UniProt Q8IWY9).
T2 sequence: T1 sequence with A194S, A195R, A196R, A541R, A544R, A548R
Description: co-IP; anti-FLAG M2 agarose IP of endogenously HaloTag-FLAG tagged CDAN1 or CDIN1 from Flp-In 293 T-REx lysates; IP buffer 50 mM HEPES pH 7.5, 100 mM KOAc, 2.5 Mg(OAc)2, 1% Triton X-100, 1 mM DTT; immunoblotting.

Substitutions are numbered along the chain they refer to. Results are given in words; binding and its absence hold for the method and conditions named. In cells and extracts the contact can be indirect. Some entries that bind do so weakly or less than the wild type. For some of these results: Where a sequence is shown, tags or fusion partners need not be part of it.

Turning to “FLAG-ASF1A N > B (ASF1A with the NTD of ASF1B) (from UniProt Q9Y294 1-204)”, in assay [1], the binding entry is given as “no binding”.
As to “FLAG-ASF1B N > A (ASF1B with the NTD of ASF1A) (from UniProt Q9NVP2 1-202)”, the binding entry in assay [1] was “no binding”.
On to “FLAG-tagged ASF1A (F-ASF1A) (from UniProt Q9Y294 1-204)”, for which the binding result in assay [1] is listed as “no binding”.
Consider “FLAG-tagged ASF1B (F-ASF1B) (from UniProt Q9NVP2 1-202)”, for which the binding entry in assay [1] is “no binding”.
Regarding “endogenous ASF1A (from UniProt Q9Y294 1-204)”, in assay [2], the binding entry was “binds”.
On to “endogenous ASF1B (from UniProt Q9NVP2 1-202)”, for which the binding result in assay [2] is listed as “binds”.

B1: FLAG-tagged CDIN1 (F-CDIN1) (natural protein, UniProt Q9Y2V0 1-281, looked up)
chain: MILTKAQYDEIAQCLVSVPPTRQSLRKLKQRFPSQSQATLLSIFSQEYQKHIKRTHAKHHTSEAIESYYQRYLNGVVKNGAAPVLLDLANEVDYAPSLMARLILERFLQEHEETPPSKSIINSMLRDPSQIPDGVLANQVYQCIVNDCCYGPLVDCIKHAIGHEHEVLLRDLLLEKNLSFLDEDQLRAKGYDKTPDFILQVPVAVEGHIIHWIESKASFGDECSHHAYLHDQFWSYWNRFGPGLVIYWYGFIQELDCNRERGILLKACFPTNIVTLCHSIA
notes: C15orf41); cDNA synthesized by IDT; source: Expi293, transiently transfected, in lysate and purified in complexes (anti-FLAG, Strep-Tactin); not shown: 3xFLAG, N-terminal, kept
Consider B1, for which the binding entry in assay [2] is given as “binds”.
